{"source": "the supplement of paper PMC3334620", "note": "Over roughly 33,000 sequences, “E-score (-0.5 to 0.5)” has its median near -0.012; the highest 2% begin near 0.29. Some of the results follow."}
{"biological_target": "T1, Ybr033w (UniProt P38073)", "T1 sequence": "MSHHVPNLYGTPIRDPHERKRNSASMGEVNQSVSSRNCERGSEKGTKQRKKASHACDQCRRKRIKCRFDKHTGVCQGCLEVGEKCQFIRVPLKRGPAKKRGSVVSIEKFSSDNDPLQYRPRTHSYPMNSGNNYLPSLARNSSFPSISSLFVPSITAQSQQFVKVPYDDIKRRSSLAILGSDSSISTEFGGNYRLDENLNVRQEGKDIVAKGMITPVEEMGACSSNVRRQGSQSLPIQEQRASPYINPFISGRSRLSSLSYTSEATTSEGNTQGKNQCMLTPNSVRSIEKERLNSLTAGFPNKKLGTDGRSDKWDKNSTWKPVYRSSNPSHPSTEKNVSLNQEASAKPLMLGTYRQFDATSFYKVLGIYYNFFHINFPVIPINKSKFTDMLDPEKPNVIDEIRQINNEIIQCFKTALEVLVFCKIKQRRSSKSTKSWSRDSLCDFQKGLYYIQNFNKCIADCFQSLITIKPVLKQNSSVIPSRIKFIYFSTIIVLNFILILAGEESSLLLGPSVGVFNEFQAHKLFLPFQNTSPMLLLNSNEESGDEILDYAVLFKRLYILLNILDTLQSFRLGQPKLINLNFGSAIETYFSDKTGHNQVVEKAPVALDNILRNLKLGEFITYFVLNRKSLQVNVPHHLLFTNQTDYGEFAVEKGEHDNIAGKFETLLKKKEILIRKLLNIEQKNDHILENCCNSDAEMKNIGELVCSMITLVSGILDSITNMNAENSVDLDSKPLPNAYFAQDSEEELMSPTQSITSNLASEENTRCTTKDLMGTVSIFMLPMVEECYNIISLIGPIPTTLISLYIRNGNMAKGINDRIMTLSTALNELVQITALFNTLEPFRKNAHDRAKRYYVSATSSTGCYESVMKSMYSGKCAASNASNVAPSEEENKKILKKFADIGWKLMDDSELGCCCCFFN", "assay": "PBM E-score (8-mer binding enrichment) (E-score (-0.5 to 0.5)); higher = stronger / more preferred TF binding; most listed sequences are background and not binding sites", "details": "protein concentration: 200 nM; construct: GST-full length", "procedure": "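Universal 'all 10-mer' protein binding microarrays (Agilent AMADID 015681) probed with GST-tagged S. cerevisiae TFs (full-length or DBD) made by in vitro transcription/translation (PURExpress), about 100-200 nM. Bound TF was detected with fluorescent anti-GST. Each ungapped 8-mer (which stands for itself and its reverse complement) is scored by the PBM enrichment score (E-score), a modified Wilcoxon-Mann-Whitney statistic from -0.5 to +0.5, computed with the Universal PBM Analysis Suite. Scale: above 0.35 generally sequence-specific binding.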"}
{"sequence": "AACGAGGT", "PBM E-score": -0.0684}
{"sequence": "ATTAACCA", "PBM E-score": 0.0788}
{"sequence": "AACACCAG", "PBM E-score": -0.148}
{"sequence": "CCGAGCAG", "PBM E-score": -0.32}
{"sequence": "TTTCAAAA", "PBM E-score": 0.253}
{"sequence": "AACTGGTA", "PBM E-score": -0.0156}
{"sequence": "TAGGGGGA", "PBM E-score": -0.3}
{"sequence": "GTTCCGAA", "PBM E-score": 0.29}
{"sequence": "AGTACACT", "PBM E-score": -0.00323}
{"sequence": "TCAGCAGA", "PBM E-score": -0.126}
{"sequence": "ACCGCTTC", "PBM E-score": -0.071}
{"sequence": "CCAGGTGA", "PBM E-score": -0.0761}
{"sequence": "AGGGGGAC", "PBM E-score": -0.353}
{"sequence": "CCAATCTC", "PBM E-score": 0.0623}
{"sequence": "ACCTAACC", "PBM E-score": 0.0922}
{"sequence": "ATGGTATG", "PBM E-score": -0.0322}
{"sequence": "CCAAATAA", "PBM E-score": 0.118}
{"sequence": "GTATCTTA", "PBM E-score": 0.213}
{"sequence": "AAATCAAG", "PBM E-score": 0.15}
{"sequence": "ACATGACA", "PBM E-score": 0.148}
{"sequence": "CTTTCTCA", "PBM E-score": 0.0734}
{"sequence": "GAAAAAAC", "PBM E-score": 0.265}
{"sequence": "ATAATGAT", "PBM E-score": 0.203}
{"sequence": "CTTGATGC", "PBM E-score": -0.0583}
{"sequence": "AGATGGAG", "PBM E-score": 0.0858}
{"sequence": "AGGTGCCA", "PBM E-score": -0.0797}
{"sequence": "GAGTAGGC", "PBM E-score": -0.113}
{"sequence": "CACCTGGC", "PBM E-score": -0.254}
{"sequence": "GCGGTAGC", "PBM E-score": -0.068}
{"sequence": "ATACCACA", "PBM E-score": 0.0738}
{"sequence": "ATACGGTA", "PBM E-score": 0.125}
{"sequence": "TCGGCAGA", "PBM E-score": 0.00291}
{"sequence": "ACCCAACC", "PBM E-score": -0.0306}
{"sequence": "AAGAACTT", "PBM E-score": 0.212}
{"sequence": "GAGACGAA", "PBM E-score": -0.00236}
{"sequence": "CGAGACCC", "PBM E-score": -0.167}
{"sequence": "CGTGTTCC", "PBM E-score": 0.0674}
{"sequence": "CTTCGTTC", "PBM E-score": 0.00337}
{"sequence": "GCGTCTCC", "PBM E-score": -0.241}
{"sequence": "CCGCTAAG", "PBM E-score": -0.131}
{"sequence": "CGGGCCCG", "PBM E-score": -0.216}
{"sequence": "AGCTCCGA", "PBM E-score": 0.0238}
{"sequence": "CAGGCCAC", "PBM E-score": -0.179}
{"sequence": "AGTAGATG", "PBM E-score": 0.135}
{"sequence": "CAGACGCG", "PBM E-score": -0.191}
{"sequence": "AGGGGTAC", "PBM E-score": -0.205}
{"sequence": "CTATTCAA", "PBM E-score": 0.0501}
{"sequence": "GTGACACA", "PBM E-score": -0.013}
{"sequence": "GGGAGTAA", "PBM E-score": 0.172}
{"sequence": "ACCGGGAA", "PBM E-score": 0.0827}
{"sequence": "AGCACGCG", "PBM E-score": -0.165}
{"sequence": "ACTCATTG", "PBM E-score": -0.128}
{"sequence": "AGCTTGGC", "PBM E-score": -0.295}
{"sequence": "GGGGCCAA", "PBM E-score": -0.123}
{"sequence": "AGAGCTGG", "PBM E-score": -0.0335}
{"sequence": "GGAGCCCA", "PBM E-score": -0.253}
{"sequence": "GACTGTAA", "PBM E-score": -0.0708}
{"sequence": "GCCTTTGA", "PBM E-score": -0.00064}
{"sequence": "ACTTAGGA", "PBM E-score": -0.0384}
{"sequence": "GTAGTTAA", "PBM E-score": 0.13}
{"sequence": "AACGGCTT", "PBM E-score": -0.052}
{"sequence": "GCAGGTGA", "PBM E-score": -0.221}
{"sequence": "CTCATGTC", "PBM E-score": -0.153}
{"sequence": "AGCCATGG", "PBM E-score": -0.158}
{"sequence": "AGCCTTCC", "PBM E-score": -0.0989}
{"sequence": "ATCGGTTC", "PBM E-score": -0.0187}
{"sequence": "TACGGCTA", "PBM E-score": -0.114}
{"sequence": "CAGATGAG", "PBM E-score": 0.0164}
{"sequence": "CCGATCAC", "PBM E-score": 0.171}
{"sequence": "CTAGGGCC", "PBM E-score": -0.175}
{"sequence": "TAAACCGA", "PBM E-score": -0.0166}
{"sequence": "CGTGGGGA", "PBM E-score": -0.131}
{"sequence": "GTTCGTCA", "PBM E-score": -0.135}
{"sequence": "AGCCCTGC", "PBM E-score": -0.128}
{"sequence": "AGGGCCAT", "PBM E-score": -0.127}
{"sequence": "ATACCCTA", "PBM E-score": 0.168}
{"sequence": "CGTTGCAA", "PBM E-score": 0.0537}
{"sequence": "AATCTCTA", "PBM E-score": 0.241}
{"sequence": "GCTAAGAC", "PBM E-score": -0.0695}
{"sequence": "ATAAACGC", "PBM E-score": -0.0345}
{"sequence": "CCGTTGGC", "PBM E-score": -0.216}
{"sequence": "CAAGCTCG", "PBM E-score": -0.0159}
{"sequence": "CTGTATCC", "PBM E-score": -0.0868}
{"sequence": "CACCGCCG", "PBM E-score": -0.216}
{"sequence": "CAATATGA", "PBM E-score": 0.141}
{"sequence": "CCGGAGTC", "PBM E-score": -0.0733}
{"sequence": "GCTATAGA", "PBM E-score": 0.0396}
{"sequence": "CGGACCTC", "PBM E-score": -0.292}
{"sequence": "CGCTTGGC", "PBM E-score": -0.266}
{"sequence": "CGAGACTA", "PBM E-score": -0.0315}
{"sequence": "GATGCGGC", "PBM E-score": -0.16}
{"sequence": "AGTTTAAC", "PBM E-score": 0.0138}
{"sequence": "AGTAGACC", "PBM E-score": 0.0631}
{"sequence": "CTGCCTGC", "PBM E-score": -0.111}
